# The list shows a part of the results.
# B1: Gal 1 (Canis lupus) (protein)
# chain: MACGLVASNLSLKPGQCLRVQCEVVPEAKSFVLNLGKDGDNLCLHFNPRFEAHGDVNTIVCNSKDGGAWGEELRESAFPFQPGTVTEVCISFDQADLTIKLPDGYTFKFPNRLNLEAISYLAADGDMKIKCLAFD
# What was measured:
# Experiment in all cases: glycan array binding signal (z-score within array); higher = stronger binding
# Conditions in all cases: glycan notation: IUPAC condensed, linker removed
# [1] = target: Fuc(a1-3)[Gal3S(b1-4)]GlcNAc
# In short: (§1)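 Glycan array data were curated from 3228 arrays in the Consortium for Functional Glycomics database and kept only where the protein sequence was available. Glycan names were converted to IUPAC-condensed notation, and columns mapping to the same glycan were averaged. The binding signal is a within-array Z-score, averaged across arrays of the same protein sequence at different concentrations or buffers and across linkers. Negative Z-scores can be read as non-binding.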
# [2] = target: Fuc(a1-3)[Gal3S(b1-4)]GlcNAc6S
# In short: as §1
# [3] = target: Fuc(a1-3)[GalNAc(b1-4)]GlcNAc
# In short: as §1
# [4] = target: Fuc(a1-4)GlcNAc
# In short: as §1
# [5] = target: Fuc(b1-3)GlcNAc
# In short: as §1
# [6] = target: Gal(a1-2)Gal
# In short: as §1
# [7] = target: Gal(a1-3)Gal
# In short: as §1
# [8] = target: Gal(a1-3)Gal(b1-3)GlcNAc
# In short: as §1
# [9] = target: Gal(a1-3)Gal(b1-3)GlcNAc(b1-2)Man(a1-3)[Gal(a1-3)Gal(b1-3)GlcNAc(b1-2)Man(a1-6)]Man(b1-4)GlcNAc(b1-4)GlcNAc
# In short: as §1
# [10] = target: Gal(a1-3)Gal(b1-3)[Fuc(a1-4)]GlcNAc(b1-2)Man(a1-3)[Gal(a1-3)Gal(b1-3)[Fuc(a1-4)]GlcNAc(b1-2)Man(a1-6)]Man(b1-4)GlcNAc(b1-4)GlcNAc
# In short: as §1
# [11] = target: Gal(a1-3)Gal(b1-4)Glc
# In short: as §1
# [12] = target: Gal(a1-3)Gal(b1-4)GlcNAc
# In short: as §1
# [13] = target: Gal(a1-3)Gal(b1-4)GlcNAc(b1-3)GalNAc
# In short: as §1
# [14] = target: Gal(a1-3)Gal(b1-4)[Fuc(a1-3)]GlcNAc
# In short: as §1
# [15] = target: Gal(a1-3)Gal(b1-4)[Fuc(a1-3)]GlcNAc(b1-2)Man(a1-3)[Gal(a1-3)Gal(b1-4)[Fuc(a1-3)]GlcNAc(b1-2)Man(a1-6)]Man(b1-4)GlcNAc(b1-4)GlcNAc
# In short: as §1
# [16] = target: Gal(a1-3)GalNAc
# In short: as §1
# [17] = target: Gal(a1-3)[Gal(a1-4)]Gal(b1-4)GlcNAc
# In short: as §1
# [18] = target: Gal(a1-4)Gal(b1-3)GlcNAc(b1-2)Man(a1-3)[Gal(a1-4)Gal(b1-3)GlcNAc(b1-2)Man(a1-6)]Man(b1-4)GlcNAc(b1-4)GlcNAc
# In short: as §1
# [19] = target: Gal(a1-4)Gal(b1-4)Glc
# In short: as §1
# [20] = target: Gal(a1-4)Gal(b1-4)GlcNAc
# In short: as §1
# [21] = target: Gal(a1-4)Gal(b1-4)GlcNAc(b1-2)Man(a1-3)[Gal(a1-4)Gal(b1-4)GlcNAc(b1-2)Man(a1-6)]Man(b1-4)GlcNAc(b1-4)GlcNAc
# In short: as §1
# [22] = target: Gal(a1-4)Gal(b1-4)GlcNAc(b1-3)Gal(b1-4)Glc
# In short: as §1
# [23] = target: Gal(a1-4)GlcNAc
# In short: as §1
# [24] = target: Gal(a1-6)Glc
# In short: as §1
# [25] = target: Gal(b1-2)Gal
# In short: as §1
# [26] = target: Gal(b1-3)Gal
# In short: as §1
# [27] = target: Gal(b1-3)Gal(b1-4)GlcNAc
# In short: as §1
# [28] = target: Gal(b1-3)Gal(b1-4)GlcNAc(b1-2)Man(a1-3)[Gal(b1-3)Gal(b1-4)GlcNAc(b1-2)Man(a1-6)]Man(b1-4)GlcNAc(b1-4)GlcNAc
# In short: as §1
# [29] = target: Gal(b1-3)GalNAc
# In short: as §1
# [30] = target: Gal(b1-3)GalNAc(a1-3)[Fuc(a1-2)]Gal(b1-4)Glc
# In short: as §1
# [31] = target: Gal(b1-3)GalNAc(a1-3)[Fuc(a1-2)]Gal(b1-4)GlcNAc
# In short: as §1
# [32] = target: Gal(b1-3)GalNAc(b1-3)Gal(a1-4)Gal(b1-4)Glc
# In short: as §1
# [33] = target: Gal(b1-3)GalNAc(b1-4)Gal(b1-4)Glc
# In short: as §1
# [34] = target: Gal(b1-3)GalNAc(b1-4)[Neu5Ac(a2-3)]Gal(b1-4)Glc
# In short: as §1
# [35] = target: Gal(b1-3)GlcNAc
# In short: as §1
# [36] = target: Gal(b1-3)GlcNAc(a1-6)Gal(b1-4)GlcNAc
# In short: as §1
# [37] = target: Gal(b1-3)GlcNAc(b1-2)Man(a1-3)[Gal(b1-3)GlcNAc(b1-2)Man(a1-6)]Man(b1-4)GlcNAc(b1-4)GlcNAc
# In short: as §1
# [38] = target: Gal(b1-3)GlcNAc(b1-2)Man(a1-3)[Gal(b1-3)GlcNAc(b1-2)Man(a1-6)]Man(b1-4)GlcNAc(b1-4)[Fuc(a1-6)]GlcNAc
# In short: as §1
# [39] = target: Gal(b1-3)GlcNAc(b1-3)Gal(b1-3)GlcNAc
# In short: as §1
# [40] = target: Gal(b1-3)GlcNAc(b1-3)Gal(b1-4)Glc
# In short: as §1
# [41] = target: Gal(b1-3)GlcNAc(b1-3)Gal(b1-4)GlcNAc
# In short: as §1
# [42] = target: Gal(b1-3)GlcNAc(b1-3)Gal(b1-4)GlcNAc(b1-6)[Gal(b1-3)GlcNAc(b1-3)]Gal(b1-4)Glc
# In short: as §1
# [43] = target: Gal(b1-3)GlcNAc(b1-3)Gal(b1-4)[Fuc(a1-3)]GlcNAc(b1-6)[Gal(b1-3)GlcNAc(b1-3)]Gal(b1-4)Glc
# In short: as §1
# [44] = target: Gal(b1-3)GlcNAc(b1-3)GalNAc
# In short: as §1
# [45] = target: Gal(b1-3)GlcNAc(b1-6)Gal(b1-4)GlcNAc
# In short: as §1
# [46] = target: Gal(b1-3)[Fuc(a1-4)]GlcNAc
# In short: as §1
# [47] = target: Gal(b1-3)[Fuc(a1-4)]GlcNAc(b1-2)Man(a1-3)[Gal(b1-3)[Fuc(a1-4)]GlcNAc(b1-2)Man(a1-6)]Man(b1-4)GlcNAc(b1-4)GlcNAc
# In short: as §1
# [48] = target: Gal(b1-3)[Fuc(a1-4)]GlcNAc(b1-2)Man(a1-3)[Gal(b1-3)[Fuc(a1-4)]GlcNAc(b1-2)Man(a1-6)]Man(b1-4)GlcNAc(b1-4)[Fuc(a1-6)]GlcNAc
# In short: as §1
# [49] = target: Gal(b1-3)[Fuc(a1-4)]GlcNAc(b1-3)Gal(b1-3)[Fuc(a1-4)]GlcNAc
# In short: as §1
# [50] = target: Gal(b1-3)[Fuc(a1-4)]GlcNAc(b1-3)Gal(b1-4)GlcNAc
# In short: as §1
# [51] = target: Gal(b1-3)[Fuc(a1-4)]GlcNAc(b1-3)Gal(b1-4)[Fuc(a1-3)]GlcNAc
# In short: as §1
# [52] = target: Gal(b1-3)[GlcNAc(b1-6)]GalNAc
# In short: as §1
# [53] = target: Gal(b1-3)[Neu5Ac(a2-6)]GalNAc
# In short: as §1
# [54] = target: Gal(b1-3)[Neu5Ac(a2-6)]GlcNAc(b1-6)Gal(b1-4)Glc
# In short: as §1
# [55] = target: Gal(b1-3)[Neu5Ac(b2-6)]GalNAc
# In short: as §1
# [56] = target: Gal(b1-4)GalNAc(a1-3)[Fuc(a1-2)]Gal(b1-4)GlcNAc
# In short: as §1
# [57] = target: Gal(b1-4)GalNAc(b1-3)[Fuc(a1-2)]Gal(b1-4)GlcNAc
# In short: as §1
# [58] = target: Gal(b1-4)Glc
# In short: as §1
# [59] = target: Gal(b1-4)Glc6S
# In short: as §1
# [60] = target: Gal(b1-4)GlcNAc
# In short: as §1
binder,measurement,setting,value
B1,glycan array binding signal (z-score),[1],-0.326
same,glycan array binding signal (z-score),[2],0.03
same,glycan array binding signal (z-score),[3],-0.329
same,glycan array binding signal (z-score),[4],-0.341
same,glycan array binding signal (z-score),[5],-0.333
same,glycan array binding signal (z-score),[6],-0.292
same,glycan array binding signal (z-score),[7],-0.279
same,glycan array binding signal (z-score),[8],0.129
same,glycan array binding signal (z-score),[9],-0.273
same,glycan array binding signal (z-score),[10],-0.274
same,glycan array binding signal (z-score),[11],-0.118
same,glycan array binding signal (z-score),[12],0.422
same,glycan array binding signal (z-score),[13],0.143
same,glycan array binding signal (z-score),[14],-0.32
same,glycan array binding signal (z-score),[15],-0.332
same,glycan array binding signal (z-score),[16],-0.329
same,glycan array binding signal (z-score),[17],-0.322
same,glycan array binding signal (z-score),[18],-0.318
same,glycan array binding signal (z-score),[19],-0.331
same,glycan array binding signal (z-score),[20],-0.342
same,glycan array binding signal (z-score),[21],-0.268
same,glycan array binding signal (z-score),[22],-0.294
same,glycan array binding signal (z-score),[23],-0.341
same,glycan array binding signal (z-score),[24],-0.331
same,glycan array binding signal (z-score),[25],-0.323
same,glycan array binding signal (z-score),[26],-0.278
same,glycan array binding signal (z-score),[27],0.262
same,glycan array binding signal (z-score),[28],6.47
same,glycan array binding signal (z-score),[29],-0.304
same,glycan array binding signal (z-score),[30],-0.303
same,glycan array binding signal (z-score),[31],-0.341
same,glycan array binding signal (z-score),[32],-0.328
same,glycan array binding signal (z-score),[33],-0.297
same,glycan array binding signal (z-score),[34],-0.312
same,glycan array binding signal (z-score),[35],-0.001
same,glycan array binding signal (z-score),[36],0.23
same,glycan array binding signal (z-score),[37],0.898
same,glycan array binding signal (z-score),[38],0.292
same,glycan array binding signal (z-score),[39],0.302
same,glycan array binding signal (z-score),[40],0.425
same,glycan array binding signal (z-score),[41],0.282
same,glycan array binding signal (z-score),[42],2.68
same,glycan array binding signal (z-score),[43],2.94
same,glycan array binding signal (z-score),[44],0.035
same,glycan array binding signal (z-score),[45],0.225
same,glycan array binding signal (z-score),[46],-0.299
same,glycan array binding signal (z-score),[47],-0.179
same,glycan array binding signal (z-score),[48],-0.309
same,glycan array binding signal (z-score),[49],-0.331
same,glycan array binding signal (z-score),[50],0.34
same,glycan array binding signal (z-score),[51],-0.314
same,glycan array binding signal (z-score),[52],-0.334
same,glycan array binding signal (z-score),[53],-0.316
same,glycan array binding signal (z-score),[54],-0.326
same,glycan array binding signal (z-score),[55],-0.315
same,glycan array binding signal (z-score),[56],-0.327
same,glycan array binding signal (z-score),[57],-0.305
same,glycan array binding signal (z-score),[58],-0.289
same,glycan array binding signal (z-score),[59],-0.051
same,glycan array binding signal (z-score),[60],0.021
